# From PubChem BioAssay AID1508624 (National Center for Advancing Translational Sciences (NCATS), 2021)
# In all, about 48,000 compounds went through this assay and about 120 (0.25%) were called active. Another 4% or so got no clear call; they are omitted. The call rests on the fitted dose curve; in most records, active means well fitted activation curve with a large enough effect; inconclusive means small, poorly fitted or top-dose-only effect, or another doubt; inactive means no such curve, though single readings can be large or run the other way. Some of the results follow.
# Assay: Primary qHTS for Identification of Small Molecule Activators of Huntingtin-Antisense Promoter Activity; further: nearly all actives have a fitted effect of over 55% in size
# Settings: HEK293 HTT-AS promoter firefly luciferase reporter (activity 0% = vehicle and -100% = no light), 24 h; series mostly up to 57.5 µM; activity change, positive = activation: at the top concentration
# How it was run: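 Quantitative HTS used concentration series of up to 57.5 uM final on HEK293 luciferase reporter cells, 24 h at 37 degrees C. Readout was Dual-Glo firefly luminescence.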
row,Compound,"activity change, positive = activation"
1,COc1cc(-c2noc(-c3ccc(N4CCOCC4)c([N+](=O)[O-])c3)n2)cc(OC)c1OC,inactive: -2.93%
2,Cc1ccc(NC(=O)CSc2nc3ccccc3c3nc(CCn4cncc4C)nn23)c(C)c1,inactive: 3.53%
3,Cc1ccc(OCC(=O)N(Cc2ccco2)Cc2ccco2)cc1,inactive: -12.3%
4,Oc1c(C(c2ccc(Br)cc2)N2CCOCC2)sc2nc(-c3ccco3)nn12 (centres undefined),inactive: -10.6%
5,CCc1ccc(C(=O)c2c(N)c(-c3nc(-c4ccc5c(c4)OCO5)cs3)c3ccccn23)cc1,inactive: 2.2%
6,COc1ccc2nc3sc(C(=O)N4CCN(c5ccccc5)CC4)cc3cc2c1,inactive: 1.24%
7,COc1ccc(CCNC(=O)CCn2c(=O)c3ccccc3n(Cc3c(C)cc(C)cc3C)c2=O)cc1OC,inactive: -12.7%
8,Cc1ccc(C(N)=O)cc1Nc1nccc(-c2cn(C(C)C)c3cnccc23)n1,inactive: -29.9%
9,Nc1nc(N)c(-c2ccccc2)s1,inactive: -5.62%
10,COc1ccc(OC)c(NC(=O)Cn2ccn(-c3ccc(F)cc3)c(=O)c2=O)c1,inactive: -9.19%
11,COc1ccc(-c2nc(SCC(=O)NCC3CCCO3)c(-c3ccc(Cl)cc3)[nH]2)cc1 (centres undefined),inactive: -24%
12,Cc1c(Cl)ccc2sc(NC(=O)c3ccc(S(=O)(=O)N4CCCC4)cc3)nc12,inactive: -11%
13,CCCNC(=O)CCn1nc(-c2ccc(C)cc2)c2ccccc2c1=O,inactive: -11.7%
14,O=C(NCc1ccc2c(c1)CCN2C(=O)c1ccncc1)c1ccccc1Br,inactive: -25%
15,Cc1ccc2ncc(C(=O)Nc3cccc(C(F)(F)F)c3)c(=O)n2c1,inactive: -9.78%
16,COc1cc(C(=O)Nc2cccc(OCc3cc(=O)n4c(C)csc4n3)c2)cc(OC)c1OC,inactive: 9.85%
17,COc1cccc(-n2cc(C(=O)Oc3ccc(F)cc3)c3ccccc3c2=O)c1,inactive: -25.8%
18,Cc1nn2c(=O)cc(COC(=O)c3ccccc3NC(=O)C(C)C)nc2s1,inactive: -4.72%
19,COc1ccc(S(=O)(=O)N2CCC(c3nnc(-c4ccccc4C)o3)CC2)c(OC)c1,inactive: -30.8%
20,Cc1noc2ncnc(N3CCCC(C(=O)NCCC(C)C)C3)c12 (centres undefined),inactive: -29%
21,O=C(C=Cc1ccc(/C=C/C(=O)Nc2ccc(C3=NCCN3)cc2)cc1)Nc1ccc(C2=NCCN2)cc1,inactive: -21.7%
22,Cc1ccc(S(=O)(=O)c2c(Nc3ccccc3)sc(C(=O)c3ccc4c(c3)OCO4)c2N)cc1,inactive: -24.7%
23,Cc1ccc(Cl)cc1N1CCN(C(=O)C(C)n2ncn3cccc3c2=O)CC1 (centres undefined),inactive: -16.7%
24,CCCCN(CCCC)C(=O)c1cc2c(=O)n3ccccc3nc2s1,inactive: -9.12%

row,Compound,"activity change, positive = activation"
1,CCNC(=O)c1c(NC(=O)c2cc(=O)c3ccc(C)c(C)c3o2)sc2c1CCCC2,inactive: 0.911%
2,Cc1cccc(N2CCN(S(=O)(=O)c3ccc(F)c(C(=O)Nc4cccc(Cl)c4C)c3)CC2C)c1 (centres undefined),inactive: -19.4%
3,O=C(NCCSc1c(-c2ccc(Cl)cc2)[nH]c2ccccc12)c1ccc(S(=O)(=O)N2CCOCC2)cc1,inactive: -25.7%
4,COc1ccc(Nc2ncnc3c2cnn3C)c(OC)c1,inactive: 4.11%
5,Cc1nn(-c2ccccc2)c2c1cc1c(=O)[nH]c(=O)nc-1n2-c1cccc(C(F)(F)F)c1,inactive: -11.7%
6,Cc1cc(C)c(S(=O)(=O)NCC(c2ccco2)N2CCN(c3ccccc3)CC2)c(C)c1 (centres undefined),inactive: -27.4%
7,Cc1ccc(-n2nc3c(=O)n(CCCC(=O)NCc4ccc(F)cc4)nc(C)c3c2C)cc1,inactive: -18.6%
8,Cc1cc(C(F)(F)F)c2c(N)c(C(=O)Nc3c(Cl)cccc3Cl)sc2n1,inactive: -15.5%
9,O=C(CN1CCN(Cc2ccc(F)cc2)C1=O)NCc1ccccc1,inactive: -7.2%
10,Cc1ccc2c(c1)-c1onc(C(=O)N3CCN(c4cccc(C)c4C)CC3)c1CO2,inactive: -8.44%
11,CC(C)c1ccc(NC(=O)c2cc3c(=O)oc4ccccc4c3s2)cc1,inactive: -7.84%
12,CCOc1ccc(CCNC(=O)c2cc3c(=O)n(C)c4ccccc4c3s2)cc1OCC,inactive: -14.7%
13,COc1ccccc1NC(=O)c1sc2cccc(Cl)c2c1Cl,inactive: 10.6%
14,CC(=O)OCC(=O)[C@@]1(O)CC[C@H]2[C@@H]3CCC4=CC(=O)C=C[C@]4(C)[C@@H]3[C@@H](O)C[C@@]21C,inactive: -12.4%
15,CCCC12CN3CC(C)(CN(C1)C3c1ccc(CC)cc1)C2=O (centres undefined),inactive: -12.8%
16,CCc1ccc(OCC(=O)NCC(c2ccc(Cl)cc2)N2CCOCC2)cc1 (centres undefined),inactive: -33.8%
17,O=C(CC(c1cccs1)N1Cc2ccccc2C1=O)Nc1ccccc1 (centres undefined),inactive: -27.2%
18,CCN1CCN(C(=O)Cn2ncc3c4ccccc4n(Cc4ccccc4F)c3c2=O)CC1,inactive: 2.96%
19,O=c1cc2nc(-c3ccccc3)nc(SCc3cccc(Br)c3)n2[nH]1,inactive: -33.3%
20,Cc1cccc(N2CCN(C(c3ccc(F)cc3)c3nnc(-c4ccccc4)o3)CC2)c1C (centres undefined),inactive: -4.08%
21,COc1cccc(N2CCN(C(=O)c3cnc4c(C)cccn4c3=O)CC2)c1,inactive: 1.47%
22,COc1ccc(N2CCN(C(CNC(=O)C(=O)NCc3ccc(C)cc3)c3cccnc3)CC2)cc1 (centres undefined),inactive: -29.5%
23,Cc1ccccc1-c1nc(NC(=O)CSc2ncnc3sc4c(c23)CCCC4)ns1,inactive: -3.59%
24,CC(C)Oc1ccc(CNC(=O)C2CCN(C(=O)N3CCOc4ccc(Cl)cc43)CC2)cc1,inactive: -34.5%

row,Compound,"activity change, positive = activation"
1,Cc1cccc(NC(=O)CSc2nc3ccccc3c3nc(CCn4cncc4C)nn23)c1,inactive: -7.66%
2,CNc1nc(Oc2ccc(=O)[nH]n2)nc(N2CCOCC2)n1,inactive: -5.68%
3,Nc1nc(F)nc2c1ncn2[C@@H]1O[C@H](COP(=O)(O)O)[C@@H](O)[C@H]1O,inactive: 6.44%
4,COc1ccc(-n2cc(C(=O)Nc3ccccc3C#N)c3ccccc3c2=O)cc1,inactive: -7.73%
5,O=C(c1cccc([N+](=O)[O-])c1)N1CCN(CCc2ccncc2)CC1,inactive: -0.873%
6,CCOc1ccccc1NC(=O)c1nn(-c2ccc(OC)cc2)c(=O)c2c1c1ccccc1n2C,inactive: -11.4%
7,COc1cccc(-n2cc(C(=O)Nc3ccccc3C(N)=O)c3ccccc3c2=O)c1,inactive: -20.2%
8,Cc1nc(SCCOc2ccc(Cl)cc2)[nH]c(=O)c1Cc1ccccc1,inactive: -7.52%
9,CCOc1ccc(NC(=O)Cn2c(=O)n(Cc3ccccc3)c(=O)c3c4c(sc32)CN(C(C)=O)CC4)cc1,inactive: -19%
10,CC(C)(C)c1ccc(S(=O)(=O)N2CCC(c3ccncc3)CC2)cc1,inactive: -88.4%
11,Cc1ccc(NC(=O)CN2C(=O)COc3ccc(S(=O)(=O)N4CCOCC4)cc32)c(Cl)c1,inactive: -2.26%
12,COc1ccccc1NC(=O)C1=C(C)Nc2ncnn2C1c1sccc1C (centres undefined),inactive: -7.25%
13,Cc1ccccc1CNC(=O)Cn1cc2c(n1)-c1c(oc(C(=O)N3CCCC3)c1C)CC2,inactive: -33.2%
14,COc1ccc(OC)c(CNC(=O)CCC(=O)N2Cc3ccccc3Oc3ncccc32)c1,inactive: -10%
15,COc1ccc2nc(NC(=O)c3nc(SCc4cccc(C)c4)ncc3Cl)sc2c1,inactive: -10.6%
16,COc1ccc(N2CC(NC(=O)C3CCCC3)CC2=O)cc1 (centres undefined),inactive: -6.88%
17,COC(=O)c1c(NC(=O)c2c(OC)cccc2OC)sc2c1CCCC2,inactive: -26.8%
18,CC1CCCCN1S(=O)(=O)c1ccc2[nH]c(=O)cc(C(=O)NCCc3ccc(Cl)cc3)c2c1 (centres undefined),inactive: -17.7%
19,COc1cccc(NC(=O)CC2Oc3ccccc3NC2=O)c1 (centres undefined),inactive: -4.27%
20,CC(=O)c1cccc(Nc2ncnc3c2cnn3-c2cccc(Cl)c2)c1,inactive: 24.4%
21,COc1cccc(NC(=O)c2oc3ccc(S(=O)(=O)N4CCOCC4)cc3c2C)c1,inactive: -40.2%
22,CC(C)OCCCNC(=O)CN1C(=O)CSc2ccc(S(=O)(=O)N3CCOCC3)cc21,inactive: -11.2%
23,CC(=O)Nc1c(C(=O)Nc2ccccc2F)oc2ccccc12,inactive: 22.4%
24,CCc1ccc(Nc2nc3c(S(=O)(=O)c4cccc(Cl)c4)nnn3c3ccsc23)cc1,inactive: -22.8%

row,Compound,"activity change, positive = activation"
1,O=C(CSc1n[nH]c(-c2ccccc2)n1)NCCc1ccccc1,inactive: -16.2%
2,NC[C@H]1O[C@H](O[C@H]2[C@@H](O)[C@@H](O[C@H]3O[C@H](CO)[C@@H](O)[C@H](N)[C@@H]3O)[C@H](N)C[C@@H]2N)[C@H](N)C[C@H]1O,inactive: 1.72%
3,COc1cc(-c2nc3cnccn3c2Nc2ccc(C(C)C)cc2)ccc1O,inactive: -42.8%
4,COc1cccc(CNC(=O)CCS(=O)(=O)c2cc3c4c(c2)CCN4C(=O)CC3)c1,inactive: -5.64%
5,COc1ccccc1-c1ccnc2c(-c3ccc(Br)cc3)c(C)nn12,inactive: -4.81%
6,CCc1ccc(Cn2c(CNS(=O)(=O)c3ccc(Cl)s3)nc3cccnc32)cc1,inactive: -27.9%
7,COc1ccc(CNC(=O)C(C)n2nc(C)c3sc4ccccc4c3c2=O)cc1OC (centres undefined),inactive: -24.3%
8,CCOC(=O)c1cc2c(=O)n3ccccc3nc2n(CC2CCCO2)c1=NC(=O)c1ccccc1F (centres undefined),inactive: 10.4%
9,Cc1nn2c(=O)cc(COC(=O)c3ccc(NC(=O)c4ccc(C(C)(C)C)cc4)cc3)nc2s1,inactive: -29.7%
10,COc1ccc(N(CC(=O)N2CCN(c3ccc(F)cc3)CC2)S(=O)(=O)c2c(C)nn(C)c2C)cc1,inactive: -15.6%
11,CC(=O)c1c(C)oc2ccc(N(C(=O)c3ccncc3)S(=O)(=O)c3ccc(F)cc3C)cc12,inactive: -40.2%
12,Cc1cccc(C(=O)Nc2sc3c(c2C(=O)O)CCCC3)c1,inactive: 12.3%
13,Cc1cc(C)cc(NC(=O)CN(C)S(=O)(=O)c2ccc3c(c2)CCC(=O)N3)c1,inactive: -4.94%
14,COc1cc(Cl)c(NC(=O)CN(C)S(=O)(=O)c2ccc3[nH]c4c(c3c2)CCCC4)c(OC)c1,inactive: -36.9%
15,CCOC(=O)C(CC)Sc1nnc2[nH]c(=O)cc(C)n12 (centres undefined),inactive: -0.681%
16,COc1cccc(CNC(=O)CC(c2ccc(C)cc2)N2Cc3ccccc3C2=O)c1 (centres undefined),inactive: -24.9%
17,Cc1ccc(CNC(=O)c2cnn(-c3ccc(F)cc3F)c2C2CCN(C(=O)OC(C)(C)C)CC2)cc1,inactive: -37.4%
18,CCCOc1ccc(C2C(=O)N(C3CCCCC3)CC(=O)N2CCC2=CCCCC2)cc1OC (centres undefined),inactive: -2.87%
19,COc1ccc(NS(=O)(=O)c2ccc3c(c2)n(C)c(=O)c(=O)n3C)cc1Cl,inactive: -22%
20,CCOc1ccc(Nc2c(S(=O)(=O)c3ccc(C)cc3)cnc3ccc(OC)cc23)cc1,inactive: -23.3%
21,COC(=O)c1ccc(NC(=O)CC2C(=O)N(c3ccccc3)C(=O)N2C2CCCC2)cc1 (centres undefined),inactive: -15.8%
22,COc1ccc(CC(=O)N2CC(=O)Nc3ccc(Br)cc3C2c2ccc(F)cc2)cc1OC (centres undefined),inactive: -15.1%
